In all, about 33,000 sequences were measured (“E-score (-0.5 to 0.5)”: median about -0.012, highest 2% from about 0.29 on). The list shows a part of the results.
Target: T1, Ybr033w (UniProt P38073)
T1 sequence: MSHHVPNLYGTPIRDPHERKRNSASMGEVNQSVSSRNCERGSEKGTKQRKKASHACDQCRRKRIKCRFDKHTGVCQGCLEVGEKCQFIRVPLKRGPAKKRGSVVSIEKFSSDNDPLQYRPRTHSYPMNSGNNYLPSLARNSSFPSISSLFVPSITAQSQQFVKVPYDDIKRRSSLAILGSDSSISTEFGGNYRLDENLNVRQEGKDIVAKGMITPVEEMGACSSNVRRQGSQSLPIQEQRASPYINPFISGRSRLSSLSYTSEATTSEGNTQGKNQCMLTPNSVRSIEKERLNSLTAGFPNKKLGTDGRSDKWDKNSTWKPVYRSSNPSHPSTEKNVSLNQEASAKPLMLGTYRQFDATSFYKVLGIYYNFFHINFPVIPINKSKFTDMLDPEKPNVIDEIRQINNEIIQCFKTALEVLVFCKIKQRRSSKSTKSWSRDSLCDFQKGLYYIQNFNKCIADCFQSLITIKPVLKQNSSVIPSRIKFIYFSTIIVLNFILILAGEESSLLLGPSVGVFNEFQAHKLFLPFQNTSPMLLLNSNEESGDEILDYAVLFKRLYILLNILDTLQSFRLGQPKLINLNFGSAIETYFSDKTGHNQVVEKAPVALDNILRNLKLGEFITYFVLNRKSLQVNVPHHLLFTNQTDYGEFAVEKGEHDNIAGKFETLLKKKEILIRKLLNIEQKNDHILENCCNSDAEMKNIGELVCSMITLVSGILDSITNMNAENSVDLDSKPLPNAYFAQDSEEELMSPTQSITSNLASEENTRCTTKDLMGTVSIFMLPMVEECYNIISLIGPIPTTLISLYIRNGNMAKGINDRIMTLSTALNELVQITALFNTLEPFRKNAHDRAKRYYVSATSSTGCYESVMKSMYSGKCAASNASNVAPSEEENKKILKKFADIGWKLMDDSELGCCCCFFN
Test: PBM E-score (8-mer binding enrichment) (E-score (-0.5 to 0.5)); higher = stronger / more preferred TF binding; most listed sequences are background and not binding sites
Conditions: protein concentration: 200 nM; construct: GST-full length
Outline: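 Bound GST-tagged yeast transcription factors, applied at about 100-200 nM to double-stranded universal all-10-mer Agilent arrays, were detected with fluorescent anti-GST. Scans were normalised with masliner. A modified Wilcoxon-Mann-Whitney statistic, the E-score, was assigned to each ungapped eight-base word pooled with its reverse complement by the Universal PBM Analysis Suite.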

| Sequence | PBM E-score |
| --- | --- |
| CAATGCAG | -0.0246 |
| CTTACAGA | -0.125 |
| AGCGCAGC | -0.189 |
| AGATAAGA | 0.154 |
| AGTTAACC | 0.0309 |
| AGGAGCAT | 0.00681 |
| AATACATT | 0.218 |
| CGAGACGC | -0.00578 |
| CGCATAGA | 0.13 |
| CACTTGAA | 0.166 |
| TCTTAACA | 0.0312 |
| AAACGCTT | 0.0762 |
| TCGGGTCA | -0.0281 |
| CGCTATAA | 0.127 |
| AAGCGTGT | -0.18 |
| AGTTGTTA | 0.174 |
| ATCCGCCG | 0.142 |
| AGCCAGTG | -0.331 |
| AACACTCT | 0.12 |
| CCCTGCGG | -0.312 |
| AAAAGTGG | 0.101 |
| ACAATGTC | 0.125 |
| AGTACTAT | 0.123 |
| CCAAATGC | 0.0718 |
| ACTATGCC | 0.0672 |

| Sequence | PBM E-score |
| --- | --- |
| ATTACTCA | 0.296 |
| ATTGAATG | 0.13 |
| GACCGATC | -0.153 |
| GTGTTGAA | -0.0491 |
| AAGGTCCA | -0.171 |
| GGGCCCCA | -0.404 |
| CATAGGTC | -0.0418 |
| AGAAGCCC | -0.0493 |
| CGCAGACG | -0.0446 |
| AGTCCTCA | 0.0412 |
| ATCCTGCA | 0.0162 |
| CAAGTACG | -0.00672 |
| CGCTTAAC | 0.0526 |
| CAGACGAG | -0.108 |
| CCGCGCAG | 0.0791 |
| CCGTATCG | -0.203 |
| GGGCCACA | -0.162 |
| ATTCGCGC | 0.102 |
| CCGTCGTC | -0.243 |
| AGCTTGAC | -0.152 |
| CCCCCTTA | -0.369 |
| GAATCACA | -0.0141 |
| AGTGACAC | -0.0769 |
| AATCTACA | 0.254 |
| CCCTACTC | -0.0594 |

| Sequence | PBM E-score |
| --- | --- |
| AGATACCG | 0.0217 |
| ACGTAGGC | -0.163 |
| GGCGTTAC | -0.0878 |
| ACCTTAGG | -0.262 |
| CCGTCACA | -0.222 |
| TACTTTCA | 0.147 |
| ACGAAGGG | -0.163 |
| CTTACATA | 0.173 |
| CAATCGTC | 0.06 |
| AACCTATC | 0.02 |
| AAAGCTCT | -0.262 |
| AGCGGAGG | -0.252 |
| CTTGGCTC | -0.146 |
| GGAATCGA | -0.0596 |
| AACATCAC | 0.0076 |
| TTACAGAA | 0.113 |
| GTATCACA | 0.0793 |
| GAACAAAC | 0.345 |
| AGTCGTGG | -0.0106 |
| ATACACAC | 0.106 |
| TGCGTTAA | 0.0117 |
| CAAAGGGA | -0.0104 |
| AGCACGTC | -0.137 |
| AGTACCAA | 0.223 |
| CCGGGCCC | -0.214 |

| Sequence | PBM E-score |
| --- | --- |
| ACGGCGGA | -0.127 |
| CACGGTTA | 0.122 |
| CAAATTCC | 0.16 |
| CCATAGAA | -0.0319 |
| AGCCGATA | -0.21 |
| GGTCTGAA | 0.0775 |
| CTTGACTC | -0.0933 |
| ATGAGGCC | -0.317 |
| ACTTACGG | 0.168 |
| AAATGGCC | -0.249 |
| ACAGACGG | -0.0903 |
| GCTGTGGA | -0.0604 |
| TTGGTAAA | 0.214 |
| GAATCGCC | -0.138 |
| CCCGTGAA | -0.0743 |
| AGGCTTCC | -0.067 |
| AGGAGGCA | -0.135 |
| CGGATGTA | 0.0327 |
| TGATCTAA | 0.113 |
| GTAGAAAA | 0.263 |
| TATAATCA | 0.224 |
| CAGGACAC | -0.139 |
| ATCAACGA | 0.138 |
| AAATATAT | 0.339 |
| AACAACCG | 0.0533 |

| Sequence | PBM E-score |
| --- | --- |
| CGCAAAAA | 0.225 |
| CAAGAATC | 0.138 |
| TGCTGACA | 0.0435 |
| GCCAAGTA | -0.197 |
| CGCTACTA | 0.218 |
| ATTCGTGA | 0.0297 |
| GCACGAAA | 0.132 |
| GCGCTGTA | -0.229 |
| AACACCCA | -0.139 |
| ACATTGCG | 0.0729 |
| ATCATATC | 0.176 |
| GACAATGA | -0.0921 |
| GCAGCCGA | -0.0905 |
| GAGTGCCA | -0.244 |
| ATAGAGAT | 0.203 |
| GGTCTTCA | -0.245 |
| CAAGCCGA | 0.0944 |
| AAATGTAT | 0.263 |
| AAGCACAG | 0.028 |
| CAGATGTA | -0.155 |
| AACATTAT | 0.233 |
| GGGGATAA | 0.0499 |
| AACAGTCG | -0.0501 |
| AAAGCAAC | 0.0832 |
| TCTAGCCA | 0.0668 |

| Sequence | PBM E-score |
| --- | --- |
| ACTCCGGG | 0.0652 |
| CCCTTCGC | -0.251 |
| ACAGTATG | -0.082 |
| CACTTCCA | -0.0205 |
| AGCGCCTC | -0.211 |
| AGTCCACA | -0.0565 |
| ACCCCACT | -0.0303 |
| CATATAAC | 0.0232 |
| CGGGTTCA | -0.104 |
| CTGACGGC | -0.144 |
| AATTACGC | 0.00358 |
| ATCACAGA | 0.139 |
| AGGCAAAA | 0.222 |
| AGCCAGAT | 0.0466 |
| GGAACTAA | 0.108 |
| AACGGACC | -0.0412 |
| ACCGAGAG | -0.0831 |
| GCCGCTTA | -0.00141 |
| GGGCGTGA | -0.157 |
| CCGAAGAG | -0.0592 |
| GTCGACAA | -0.159 |
| TATACAAA | 0.356 |
| ACAAGTTC | 0.201 |
| CCAATGAG | -0.247 |
| AGCTGTCG | -0.125 |

| Sequence | PBM E-score |
| --- | --- |
| ATATGTCC | 0.00162 |
| ACCCCCAT | -0.362 |
| CCGAACCC | -0.361 |
| CGTGGGAG | -0.0549 |
| CCGCACTA | 0.117 |
| CTTCCTAA | 0.111 |
| TAATCCAA | 0.279 |
| CCCGAGTA | 0.139 |
| CCCTCTCA | -0.345 |
| ACTCGAAG | -0.242 |
| CCCCAAAC | -0.101 |
| ATACTTTC | 0.177 |
| GCCACGAA | -0.226 |
| ACTCTGTC | -0.0827 |
| CTTGATAA | 0.267 |
| GTCAGCAC | -0.0443 |
| CGCTCGCA | 0.0333 |
| AAAACAGA | 0.202 |
| AATCACTC | 0.0577 |
| CATTCTAA | 0.165 |
| ATCAGAGA | 0.129 |
| ACGCACCA | 0.00766 |

Reference: the supplement of paper PMC3334620
